Experimental data published in PubChem BioAssay AID463173 (ICCB-Longwood Screening Facility, Harvard Medical School, 2010).
Hit rate of the full screen: of about 52,000 compounds, about 4,300 (8.3%) were called active. Rule as the data show it: active = survival mostly below about 52% (no sharp cut-off); inactive = mostly above about 56%. The list shows a part of the results.

Test system: DeltatarO mutant
Experiment: growth inhibition of S. aureus wild type versus tarO mutant, primary screen, teichoic acid synthesis inhibitors, RN4220, OD600 (AID 463173)
Conditions: OD600, 18 h, stronger effect = lower value, screened at 18.75 µg/mL (by protocol)

Row | Structure (SMILES) | survival
1 | COc1ccc2c(c1)CC(NC(=O)Nc1c(C)cc(C)cc1C)CO2 (stereo unspecified) | inactive: 69%
2 | Cc1ccccc1OCC(=O)OCc1cc(=O)n2nc(C3CCCCC3)sc2n1 | inactive: 85%
3 | CCCNc1ncccc1C(N)=O | inactive: 110%
4 | CC(=O)c1ccc(N2CCN(S(=O)(=O)c3ccc(-c4cc(C(F)(F)F)on4)s3)CC2)cc1 | inactive: 96%
5 | CSc1cccc(NC(=O)Cn2c3ncccc3c(=O)n2-c2ccc(C)cc2)c1 | inactive: 105%
6 | Cc1csc2nc(COc3ccccc3NC(=O)c3ccco3)cc(=O)n12 | inactive: 135%
7 | Cc1ccc(C)c(CN2C(=O)c3ccccc3S(=O)(=O)c3ccc(C(=O)N4CCCCCC4)cc32)c1 | inactive: 67%
8 | CCOC(=O)c1ccc2oc(=O)n(Cc3ccccc3)c2c1 | inactive: 83%
9 | CC(=O)Nc1ccc(C2Sc3ccccc3NC3=C2C(=O)c2ccccc23)cc1 (stereo unspecified) | inactive: 116%
10 | Cc1cccc(N2C(=O)CS/C2=N\NC(=O)c2cccnc2)c1C | inactive: 114%
11 | Cc1oc2ncn(CC(C)C)c(=O)c2c1C(=O)NCCCN1CCCCC1 | inactive: 101%
12 | Cc1cc(C)c(NC(=O)c2cc3sc(Cl)cc3n2C)c(C)c1 | inactive: 128%
13 | COc1ccccc1CNC(=O)c1ccc(N2CCCC2)c(NC(=O)NCCC(C)C)c1 | inactive: 94%
14 | O=C(COc1ccc(F)cc1)Nc1ccc2nc(SCC(=O)N3CCc4ccccc43)sc2c1 | inactive: 57%
15 | COc1cccc(NC(=O)CSc2ncc(S(=O)(=O)c3ccc(C)c(C)c3)c(=O)[nH]2)c1 | inactive: 63%
16 | COc1ccc(OCCCCn2c(-c3ccc(Cl)cc3)nc3ccccc3c2=O)cc1 | active: 34%
17 | CCCCCOC(=O)CSc1ncnc2c1sc1nc(N3CCOCC3)c3c(c12)CCCC3 | inactive: 71%
18 | Cc1ccc(C(=O)CC2(O)C(=O)N(CCc3ccccc3)c3ccc(Cl)cc32)cc1 (stereo unspecified) | active: 17%
19 | Cc1cc(Nc2cccc(C)c2C)n2cnnc2n1 | inactive: 100%
20 | Cn1c(=O)c2c(-c3ccccc3Cl)n(-c3cc(Cl)ccc3O)cc2n(C)c1=O | active: 53%
21 | COc1cc(NC(=O)CCc2nc(-c3cccs3)no2)cc(OC)c1OC | inactive: 101%
22 | Cc1ccc2c(=O)cc(C(=O)Nc3cccc(Cl)c3C)oc2c1C | inactive: 54%
23 | CCc1nnc(SCc2nc(-c3ccc(OC)c(OC)c3)oc2C)c2cc3sc(C)cc3n12 | inactive: 69%

Row | Structure (SMILES) | survival
24 | Cc1ccc(/C=C/c2onc(C)c2S(=O)(=O)N2CCC(C(=O)NCc3ccc(C)o3)CC2)cc1 | inactive: 129%
25 | COc1cccc(CNC(=O)Cc2ccc(NC(=O)N3CCCCc4ccccc43)cc2)c1OC | inactive: 68%
26 | COc1ccc(Nc2ncc(C(=O)N3CCN(c4cccc(Cl)c4)CC3)c3ccccc23)cc1 | inactive: 62%
27 | Cc1cccc(NC(=O)CSc2nc(-c3ccccc3)cn2-c2ccccc2)c1C | inactive: 88%
28 | CCc1ccc2ncc3c(-c4ccc(F)cc4)nn(CC(=O)NCc4ccccc4)c3c2c1 | inactive: 69%
29 | COc1ccc(CNC(=O)c2c(O)nc3cc(C)ccn3c2=O)cc1 | inactive: 78%
30 | CC(C)CC(C(=O)NCc1ccc(F)cc1)N1Cc2ccccc2C1=O (stereo unspecified) | inactive: 88%
31 | CCc1ccccc1NC(=O)CN1CCC(NC(=O)NC2CCCCC2)CC1 | inactive: 71%
32 | CCOc1ccc(-c2nc(SCC(=O)Nc3ccc(C)c(C)c3)n3[nH]c(=O)cc3n2)cc1 | inactive: 78%
33 | Cc1ccc(C(C)C)c(OCC(=O)Nc2ccc(C(=O)OC3CCCCC3)cc2)c1 | active: 33%
34 | Cc1ccc(-c2csc(=Nc3ccccc3)n2Cc2ccc3c(c2)OCO3)cc1C | inactive: 112%
35 | CCN1CCN(C(c2ccccc2)c2sc3nc(-c4ccco4)nn3c2O)CC1 (stereo unspecified) | inactive: 92%
36 | COc1ccc(S(=O)(=O)c2c(Nc3ccc(F)cc3)sc(C(=O)c3ccc4c(c3)OCO4)c2N)cc1 | inactive: 116%
37 | CCOc1ccccc1C(=O)Oc1c(Sc2ccccc2)c(C)nn1C(C)(C)C | inactive: 91%
38 | COc1ccc(N2CCN(C(=O)c3ccc4c(c3)N(Cc3ccc(F)cc3)C(=O)c3ccccc3S4=O)CC2)cc1 (stereo unspecified) | inactive: 116%
39 | COc1ccccc1C(=O)n1nc(-c2ccco2)nc1NCc1ccc(Cl)cc1 | inactive: 54%
40 | CCCn1c(C(O)c2cc(OC)c(OC)c(OC)c2)nc2ccccc21 (stereo unspecified) | inactive: 75%
41 | CC(C(=O)Nc1cc(C(F)(F)F)ccc1Cl)n1nnc2sc3c(c2c1=O)CCCC3 (stereo unspecified) | active: 53%
42 | Cc1ccccc1C(=O)NCc1nc2cccnc2n1Cc1ccccc1 | inactive: 83%
43 | Cc1ccc2oc(-c3ccc(C)c(NC(=O)c4ccc(C(C)(C)C)cc4)c3)nc2c1 | inactive: 136%
44 | CCCC(=O)Nc1ccc(NC(=O)c2ccc3c(c2)OCO3)cc1 | inactive: 104%
45 | COc1ccc(-c2cn3c(n2)sc2cc(C(=O)NCCCN4CCCCCC4)ccc23)cc1 | inactive: 64%
46 | Nc1cc(N)nc(SCC(=O)Nc2ccccc2)n1 | inactive: 104%

Row | Structure (SMILES) | survival
47 | N#C/C(=C\c1cn(CCOc2ccccc2)c2ccccc12)C(=O)N1CCCC1 | inactive: 51%
48 | COc1ccccc1NC(=O)c1c(NCc2ccc(C)o2)sc2c1CCC(C)C2 (stereo unspecified) | inactive: 90%
49 | N#Cc1nc2c(nc1C#N)-c1ccccc1C2=O | active: 19%
50 | COCCc1nn2c(=O)cc(COC(=O)COc3ccc(F)cc3)nc2s1 | inactive: 109%
51 | CN1CCN(c2oc(-c3ccc(COc4ccc(Cl)cc4)o3)nc2C#N)CC1 | active: 45%
52 | CC1(C)Nc2ccccc2C(=O)N1c1ccccc1 | inactive: 98%
53 | Cc1nc2ccccc2n1CCc1nc2c3ccccc3nc(SCC(=O)Nc3ccc(Br)cc3F)n2n1 | inactive: 98%
54 | COc1ccc(-c2nc3ccccc3o2)cc1NC(=O)C(C)Oc1ccc(Cl)cc1Cl (stereo unspecified) | active: 38%
55 | CC(C)C12CN3CC(C(C)C)(CN(C1)C3c1ccc(Cl)cc1)C2=O (stereo unspecified) | active: 39%
56 | CN(C)CCCN(C(=O)c1cccs1)c1nc2ccc(F)cc2s1 | inactive: 92%
57 | O=C(CN1C(=O)CCc2cc(S(=O)(=O)N3CCOCC3)ccc21)Nc1cccc(Cl)c1 | inactive: 75%
58 | N#Cc1nc(-c2ccc(COc3ccccc3)o2)oc1NCc1ccccc1 | inactive: 70%
59 | CCCSc1ncc(Cl)c(C(=O)N(Cc2ccc(N(C)C)cc2)C2CCS(=O)(=O)C2)n1 (stereo unspecified) | inactive: 91%
60 | COc1ccc(NC(=O)Cn2cnc3sc(C)c(S(=O)(=O)N4CCN(C)CC4)c3c2=O)cc1Cl | inactive: 150%
61 | CCC(O)c1cc2c(cc1NC(=O)c1cccc(Br)c1)OCCO2 (stereo unspecified) | inactive: 56%
62 | CCOC(=O)c1cccc(NC(=O)c2cc(CN3CCOCC3)on2)c1 | inactive: 94%
63 | CCN(CC)S(=O)(=O)c1ccc(C(=O)Nc2nc3c(Cl)cc(Cl)cc3s2)cc1 | inactive: 124%
64 | CCOC(=O)c1ccc(NC(=O)COCc2cc(-c3ccc4c(c3)OCO4)on2)cc1 | inactive: 83%
65 | CNC(=O)C1CCC(Cn2c(=O)[nH]c3ccsc3c2=O)CC1 (stereo unspecified) | inactive: 99%
66 | CCOC(=O)CNC(=O)N1CCc2cc(S(=O)(=O)N3CCC(C)CC3)ccc21 | inactive: 89%
67 | Cc1ccc(NS(=O)(=O)c2ccc3c(c2)NC(=O)CCS3)cc1C | inactive: 79%
68 | Cc1cccc(OC(=O)c2cc(-c3ccc4c(c3)OCCO4)on2)c1 | active: -2%
69 | COc1ccc2[nH]c(=O)c(CNCc3ccccc3)cc2c1 | inactive: 106%

Row | Structure (SMILES) | survival
70 | Cc1ccccc1-n1c(/C=C/c2c(C)n(C)c3ccccc23)nc2ccccc2c1=O | inactive: 57%
71 | CN(c1ccc(C(=O)NCC2CCCO2)cc1)S(C)(=O)=O (stereo unspecified) | inactive: 74%
72 | N#Cc1nc(/C=C/c2ccc(F)cc2)oc1N1CCN(c2ccccc2)CC1 | inactive: 73%
73 | CC(C)c1ccc(OCC(=O)Nc2c(Cl)ccc3nsnc23)cc1 | active: 41%
74 | Cc1noc(Cn2c(=O)c3ccccc3n(CC(=O)Nc3cccc(Cl)c3C)c2=O)n1 | inactive: 75%
75 | CC1CCN(c2nn3c(=O)c(C(=O)NCc4ccc(Cl)cc4)cnc3s2)CC1 | inactive: 73%
76 | CCOc1ccccc1NC(=O)C1CCN(c2ncccn2)CC1 | inactive: 107%
77 | CC(=O)N1CCCc2cc(S(=O)(=O)N(C)CC(=O)Nc3ccc(C)cc3C)ccc21 | inactive: 89%
78 | COc1ccc(C2C(=O)N(C3CCC(C)CC3)CC(=O)N2Cc2ccccc2Cl)cc1OC (stereo unspecified) | inactive: 72%
79 | Cc1ccc(Sc2c(C)nn(C(=O)COc3ccc(F)cc3)c2C)cc1 | inactive: 92%
80 | O=C(NCCN1CCN(c2ccccc2)CC1)Nc1ccccc1Br | inactive: 87%
81 | Cc1cccc(-c2noc(-c3cccnc3NCc3ccco3)n2)c1 | active: 44%
82 | O=C(Nc1cccc(NC(=O)c2ccc(Br)o2)c1)c1ccccc1 | inactive: 55%
83 | COc1cccc(C2c3c(oc4ccc(C)cc4c3=O)C(=O)N2CCCN2CCOCC2)c1OC (stereo unspecified) | inactive: 135%
84 | COc1ccc(-n2c(=O)c3c4c(sc3n(Cc3cc(C)ccc3C)c2=O)CN(C(C)=O)CC4)c(OC)c1 | inactive: 93%
85 | Cc1ccccc1-n1cc(-c2ccccc2)nc1SCC(=O)Nc1ccc(F)cc1 | inactive: 94%
86 | CC(C)C(NC(=O)OCc1ccccc1)C(=O)N1CCOCCOCCOCC1 (stereo unspecified) | inactive: 75%
87 | CCCn1c2ccccc2c2cnn(CC(=O)N3CCC(C(=O)OCC)CC3)c(=O)c21 | inactive: 66%
88 | COc1ccccc1NC(=O)N1CCNCC1 | inactive: 73%
89 | O=C(c1ccc2c(c1)OCCO2)N(Cc1cccnc1)c1nc2c(F)cccc2s1 | inactive: 75%
90 | Cc1cccc(-c2noc(CN(C(=O)c3ccccc3Cl)C(C)C)n2)c1 | inactive: 62%
91 | Cn1c(C(=O)NCCc2ccccc2)cc2c(=O)n3ccccc3nc21 | active: 48%
